The values below come from PubChem BioAssay (EPA / NIEHS).

For some of these results: Most of the hits are listed elsewhere, so they are rarer here than in the full data. Results filed as inconclusive are left out. More than one record can exist for a structure, and the calls need not agree. Only a part is listed here, and it is no random draw. Active and inactive are the calls of the source. The calls were made as follows, unless noted: active = hit-call score of the fitted dose curve at least 0.9, where 1 is the maximum; inconclusive = response in the unintended direction; inactive = score below 0.9.

Read-out in assay [1]: Matrix Metallopeptidase 1 (MMP1), MMP1 (gene 4312)
Briefly: BSK_BE3C_MMP1: BioMAP Diversity Plus: BE3C Assay for Matrix Metallopeptidase 1 (MMP1) Biomarker Activity (AID 2283024; active = hit-call score of the fitted dose curve at least 0.9, where 1 is the maximum; inactive = score below 0.9). As to conditions: actives raise or lower the signal; primary human bronchial epithelial cells. The gist of the method:
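ELISA read-out of MMP1 in human lung bronchial epithelial primary cultures, 24 h post-dose; bidirectional curve fit vs DMSO baseline, gain or loss of signal scored.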

Read-out in assay [2]: Interleukin-8 (IL8), CXCL8 (gene 3576)
Briefly: BSK_CASM3C_IL8: BioMAP Diversity Plus: CASM3C Assay for Interleukin-8 (IL8) Biomarker Activity (AID 2283042; active = hit-call score of the fitted dose curve at least 0.9, where 1 is the maximum; inactive = score below 0.9;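 also: IL-8 protein level quantified by ELISA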). As to conditions: actives raise or lower the signal; primary human coronary artery smooth muscle cells.

A short description of assay [3]: BSK_CASM3C_Proliferation: Cell Proliferation Assessment in the BioMAP Diversity Plus: CASM3C Assay (AID 2283047; active = hit-call score of the fitted dose curve at least 0.9, where 1 is the maximum; inactive = score below 0.9;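 also: sulforhodamine B total protein stain as relative cell number at 560 nm; sub-confluent cells exposed 48 h before staining; fitted both ways against DMSO so gain or loss of cell number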). The conditions noted are these: primary human coronary artery smooth muscle cells.
In assay [4] the target is human Epidermal Growth Factor Receptor (EGFR), EGFR (gene 1956) (UniProt P00533). Put plainly: NVS_ENZ_hEGFR: NovaScreen (NVS) Enzymatic Assay for human Epidermal Growth Factor Receptor (EGFR) (AID 2283151). The gist of the method:
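Cell-free kinase assay, fluorescence plus electrophoretic mobility shift separating substrate and product, read 1 hour after dosing; loss of signal vs DMSO. Duplicate screen at 25 uM, then concentration-response to 50 uM.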

Assay [5] deals with human Matrix Metalloproteinase-2 (MMP2), MMP2 (gene 4313) (UniProt P08253). Put plainly: NVS_ENZ_hMMP2: NovaScreen (NVS) Enzymatic Assay for human Matrix Metalloproteinase-2 (MMP2) (AID 2283184). The gist of the method: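 Compounds first screened in duplicate at a single 25 uM, with actives followed up in concentration series. Recombinant human MMP2 cleaves a fluorogenic substrate; fluorescence taken at 1 h, inhibition fitted relative to DMSO.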

In assay [6] the target is human NIMA (Never In Mitosis Gene A)-Related Kinase 2 (NEK2), NEK2 (gene 4751) (UniProt P51955). Put plainly: NVS_ENZ_hNEK2: NovaScreen (NVS) Enzymatic Assay for human NIMA (Never In Mitosis Gene A)-Related Kinase 2 (NEK2) (AID 2283188).
The target of assay [7] is Tyrosine-protein phosphatase non-receptor type 11 (Homo sapiens) (UniProt Q06124). Briefly: NVS_ENZ_hPTPN11: NovaScreen (NVS) Enzymatic Assay for human Protein Tyrosine Phosphatase Non-receptor Type 11 (PTPN11) (AID 2283202). The gist of the method:
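Compounds first tested in duplicate at 25 uM; those reaching ~30% inhibition rerun in singleton concentration-response, top 50 uM. Phosphatase activity measured after 0.5 h by fluorescence with mobility-shift separation, relative to DMSO.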

In assay [8] the target is human Protein Tyrosine Phosphatase Receptor Type M (PTPRM), PTPRM (gene 5797) (UniProt P28827). Put plainly: NVS_ENZ_hPTPRM: NovaScreen (NVS) Enzymatic Assay for human Protein Tyrosine Phosphatase Receptor Type M (PTPRM) (AID 2283215).
Assay [9] addresses human Vascular Endothelial Growth Factor Receptor 1 (VEGFR1), FLT1 (gene 2321) (UniProt P17948). Briefly: NVS_ENZ_hVEGFR1: NovaScreen (NVS) Enzymatic Assay for human Vascular Endothelial Growth Factor Receptor 1 (VEGFR1) (AID 2283226).
The subject of assay [10] is guinea pig Leukotriene B4 Receptor (LTB4), gene 100379538. Put plainly: NVS_GPCR_gLTB4: NovaScreen (NVS) G Protein-Coupled Receptor Assay for guinea pig Leukotriene B4 Receptor (LTB4) (AID 2283247). The procedure, abridged: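 Membranes from guinea pig spleen incubated 2 h with radioligand and compound; bound counts measured by filtration and scintillation. Screened first at 25 uM in duplicate, then actives titrated to a 50 uM top concentration relative to DMSO.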

Read-out in assay [11]: Pro-epidermal growth factor (Homo sapiens) (UniProt P01133)
Briefly: LTEA_HepaRG_EGF: Life Technologies and Expression Analysis (LTEA) Assay for Epidermal growth factor (EGF) using HepaRG (AID 2283489; active = hit-call score of the fitted dose curve at least 0.9, where 1 is the maximum; inactive = score below 0.9). The conditions noted are these: actives raise or lower the signal; mRNA level, 48 h. The procedure, abridged:
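Differentiated human HepaRG cells, plated 48 h then switched to serum-free induction medium, were exposed for 48 h to test chemicals (8-point half-log series, top 100 uM, 0.5% DMSO). EGF mRNA was quantified by qRT-PCR, normalized to ACTB, GAPDH, POLR2A.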

Read-out in a further assay: MYC, MYC (gene 4609)
Put plainly: LTEA_HepaRG_MYC: Life Technologies and Expression Analysis (LTEA) Assay for MYC using HepaRG (AID 2283518; active = hit-call score of the fitted dose curve at least 0.9, where 1 is the maximum; inactive = score below 0.9). The conditions noted are these: actives raise or lower the signal; mRNA level, 48 h. The procedure, abridged: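 Differentiated human HepaRG cells, plated 48 h then switched to serum-free induction medium, were exposed in duplicate for 48 h to 8-point half-log series up to 100 uM in 0.5% DMSO. MYC mRNA measured by qRT-PCR, normalized to ACTB/GAPDH/POLR2A.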

Assay [12] addresses Luciferin 4-monooxygenase (Photinus pyralis) (UniProt P08659). Briefly: CCTE_Simmons_QuantiLum_inhib_2: CCTE's Firefly Luciferase Inhibition Assay, Simmons Lab (AID 2283767). The procedure, abridged:
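Cell-free QuantiLum luciferase, 5 ng/well; compounds 5 nM–87.5 uM final, 8 conc, 0.5% DMSO; 30 min, 37C, dark. Detection reagent (150 uM D-luciferin, 147 uM dATP, CoA, DTT, pH 7.8 final) injected per well, kinetic luminescence. Triplicate biological replicates.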

Assay [13] in a line: ACEA_AR_agonist_AUC_viability: ACEA Biosciences xCELLigence Real-Time Cell Analysis on Androgen Receptor Agonism for Viability (AID 2283775). The gist of the method:
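Viability endpoint from xCELLigence impedance in 22Rv1 prostate cells at 80 h. Eight-point series, 100 uM maximum final.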

A short description of assay [14]: ACEA_AR_antagonist_AUC_viability: ACEA Biosciences xCELLigence Real-Time Cell Analysis on Androgen Receptor Antagonism for Viability (AID 2283776).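 Also: 22Rv1 human prostate cancer cells growing on impedance electrode plates; area under impedance growth curve at 80 h after dosing as viability; hits lower the growth signal relative to DMSO meaning cytotoxicity.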 The gist of the method:
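Impedance read-out (RT-CES): area under growth curve at 80 h post-dose, loss of signal scored vs DMSO baseline. 22Rv1 cells; 8-pt 1:4 series, top 100 uM final, ≤0.5% DMSO; biological duplicate.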

Assay [15] can be described thus: CCTE_Simmons_MITO_viability: CellTiter-Glo Viability Assessment for CCTE's HepG2 Seahorse XF Respirometric Screening Assay [post-hoc], Simmons Lab (AID 2284007). The gist of the method: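 Luciferase-coupled ATP luminescence, single endpoint. HepG2, post-respirometry. Compound 125 nM–100 uM final, 7 conc., 90 min. n=3 biological, technical singles. DMSO vehicle/baseline; dichlone 10 nM–100 uM, 8 conc., as positive control.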

UniProt P28827, sequence (P28827 whole entry, looked up): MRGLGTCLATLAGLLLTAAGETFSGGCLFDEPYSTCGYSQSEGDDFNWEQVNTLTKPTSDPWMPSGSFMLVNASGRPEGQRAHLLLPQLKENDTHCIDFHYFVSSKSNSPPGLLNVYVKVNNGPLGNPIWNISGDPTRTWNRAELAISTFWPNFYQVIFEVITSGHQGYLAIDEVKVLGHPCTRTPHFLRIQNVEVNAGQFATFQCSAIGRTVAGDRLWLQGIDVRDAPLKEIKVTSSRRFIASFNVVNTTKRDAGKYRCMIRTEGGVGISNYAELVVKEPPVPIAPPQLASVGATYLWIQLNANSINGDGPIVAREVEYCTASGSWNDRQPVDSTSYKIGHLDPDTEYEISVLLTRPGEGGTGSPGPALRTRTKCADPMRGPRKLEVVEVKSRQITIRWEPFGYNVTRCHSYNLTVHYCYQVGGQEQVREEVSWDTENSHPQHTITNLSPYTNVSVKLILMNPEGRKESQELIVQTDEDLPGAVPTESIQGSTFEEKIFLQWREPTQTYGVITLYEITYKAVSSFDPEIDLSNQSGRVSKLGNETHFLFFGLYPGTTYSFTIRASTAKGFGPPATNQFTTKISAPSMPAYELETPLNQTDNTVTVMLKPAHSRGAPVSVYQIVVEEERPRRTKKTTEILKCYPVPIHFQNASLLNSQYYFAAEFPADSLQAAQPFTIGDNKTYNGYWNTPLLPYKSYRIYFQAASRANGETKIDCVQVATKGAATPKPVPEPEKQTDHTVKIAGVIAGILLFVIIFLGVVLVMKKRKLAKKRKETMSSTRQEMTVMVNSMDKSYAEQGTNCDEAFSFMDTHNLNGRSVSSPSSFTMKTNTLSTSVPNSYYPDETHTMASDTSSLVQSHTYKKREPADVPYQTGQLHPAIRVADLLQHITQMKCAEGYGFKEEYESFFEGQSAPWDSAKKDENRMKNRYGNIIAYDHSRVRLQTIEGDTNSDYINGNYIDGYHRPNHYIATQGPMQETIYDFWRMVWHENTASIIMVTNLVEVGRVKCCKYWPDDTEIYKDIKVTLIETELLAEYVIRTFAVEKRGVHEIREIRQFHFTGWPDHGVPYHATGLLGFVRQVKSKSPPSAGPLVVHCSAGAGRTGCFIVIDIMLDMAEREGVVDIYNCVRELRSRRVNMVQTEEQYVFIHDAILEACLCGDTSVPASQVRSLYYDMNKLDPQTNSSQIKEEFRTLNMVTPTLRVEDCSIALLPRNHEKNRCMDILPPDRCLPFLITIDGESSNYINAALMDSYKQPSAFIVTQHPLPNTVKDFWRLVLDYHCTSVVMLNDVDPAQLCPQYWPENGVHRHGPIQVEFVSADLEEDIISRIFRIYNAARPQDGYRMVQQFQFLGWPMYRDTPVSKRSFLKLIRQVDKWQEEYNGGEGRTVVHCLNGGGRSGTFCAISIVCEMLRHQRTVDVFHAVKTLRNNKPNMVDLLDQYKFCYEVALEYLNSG
UniProt P51955, sequence (P51955 whole entry, looked up): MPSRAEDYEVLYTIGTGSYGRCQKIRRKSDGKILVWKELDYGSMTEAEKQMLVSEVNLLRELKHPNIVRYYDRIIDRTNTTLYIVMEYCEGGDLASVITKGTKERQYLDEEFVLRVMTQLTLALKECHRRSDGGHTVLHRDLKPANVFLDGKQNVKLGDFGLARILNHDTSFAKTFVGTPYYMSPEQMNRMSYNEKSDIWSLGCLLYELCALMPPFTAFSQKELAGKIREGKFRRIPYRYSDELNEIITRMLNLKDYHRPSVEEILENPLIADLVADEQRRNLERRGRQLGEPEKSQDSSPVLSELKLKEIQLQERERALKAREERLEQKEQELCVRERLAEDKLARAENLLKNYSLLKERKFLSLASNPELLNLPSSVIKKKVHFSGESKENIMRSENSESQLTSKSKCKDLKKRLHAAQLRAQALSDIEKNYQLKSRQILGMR
UniProt P00533, sequence (P00533 whole entry, looked up): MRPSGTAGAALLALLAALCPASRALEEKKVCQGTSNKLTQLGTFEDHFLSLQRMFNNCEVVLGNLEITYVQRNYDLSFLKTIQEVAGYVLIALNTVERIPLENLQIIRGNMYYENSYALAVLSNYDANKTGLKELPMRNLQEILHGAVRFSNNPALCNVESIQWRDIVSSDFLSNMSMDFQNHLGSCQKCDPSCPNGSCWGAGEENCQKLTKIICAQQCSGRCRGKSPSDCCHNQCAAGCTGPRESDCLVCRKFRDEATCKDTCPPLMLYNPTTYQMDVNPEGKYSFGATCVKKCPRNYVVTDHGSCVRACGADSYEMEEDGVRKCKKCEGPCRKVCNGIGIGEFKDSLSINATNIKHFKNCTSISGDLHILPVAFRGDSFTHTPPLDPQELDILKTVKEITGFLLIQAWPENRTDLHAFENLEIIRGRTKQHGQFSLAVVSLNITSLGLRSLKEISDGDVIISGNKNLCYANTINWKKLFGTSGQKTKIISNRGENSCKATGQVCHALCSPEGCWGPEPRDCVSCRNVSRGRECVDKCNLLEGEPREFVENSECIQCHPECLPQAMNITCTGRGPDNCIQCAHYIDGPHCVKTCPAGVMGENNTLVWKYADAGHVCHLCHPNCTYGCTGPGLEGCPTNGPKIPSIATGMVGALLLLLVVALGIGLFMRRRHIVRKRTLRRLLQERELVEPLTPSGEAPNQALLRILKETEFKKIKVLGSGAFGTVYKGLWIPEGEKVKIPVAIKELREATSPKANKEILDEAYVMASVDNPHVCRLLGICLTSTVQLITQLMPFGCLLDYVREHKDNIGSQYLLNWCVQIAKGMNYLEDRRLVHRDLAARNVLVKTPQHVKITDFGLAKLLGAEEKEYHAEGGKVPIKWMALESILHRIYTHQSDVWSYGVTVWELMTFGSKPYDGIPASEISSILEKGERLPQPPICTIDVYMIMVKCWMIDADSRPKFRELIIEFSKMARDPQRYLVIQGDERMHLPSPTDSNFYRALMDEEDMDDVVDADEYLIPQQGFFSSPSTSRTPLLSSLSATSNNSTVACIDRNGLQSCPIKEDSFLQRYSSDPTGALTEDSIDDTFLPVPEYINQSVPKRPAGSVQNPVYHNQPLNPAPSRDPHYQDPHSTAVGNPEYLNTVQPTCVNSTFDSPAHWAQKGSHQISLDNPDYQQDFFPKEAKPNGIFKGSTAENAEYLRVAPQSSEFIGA
UniProt P08253, sequence (P08253 whole entry, looked up): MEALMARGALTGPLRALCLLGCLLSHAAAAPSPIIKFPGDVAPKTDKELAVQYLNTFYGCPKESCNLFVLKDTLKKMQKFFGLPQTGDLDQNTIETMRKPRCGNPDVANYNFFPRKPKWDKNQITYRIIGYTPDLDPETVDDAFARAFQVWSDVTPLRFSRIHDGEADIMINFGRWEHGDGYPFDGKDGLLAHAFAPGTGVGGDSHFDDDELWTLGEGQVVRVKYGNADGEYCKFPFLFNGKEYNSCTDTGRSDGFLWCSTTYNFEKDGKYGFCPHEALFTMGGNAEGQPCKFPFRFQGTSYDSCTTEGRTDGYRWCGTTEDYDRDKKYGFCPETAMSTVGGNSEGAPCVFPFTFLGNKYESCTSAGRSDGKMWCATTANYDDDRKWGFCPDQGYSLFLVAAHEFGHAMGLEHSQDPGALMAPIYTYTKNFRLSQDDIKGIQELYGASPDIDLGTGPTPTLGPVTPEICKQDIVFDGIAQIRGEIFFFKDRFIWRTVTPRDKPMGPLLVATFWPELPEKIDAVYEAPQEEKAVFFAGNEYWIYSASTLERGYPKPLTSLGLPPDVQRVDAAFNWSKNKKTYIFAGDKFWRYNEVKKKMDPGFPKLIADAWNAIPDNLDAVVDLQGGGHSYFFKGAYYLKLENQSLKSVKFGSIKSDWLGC
UniProt Q06124, sequence (Q06124 whole entry, looked up): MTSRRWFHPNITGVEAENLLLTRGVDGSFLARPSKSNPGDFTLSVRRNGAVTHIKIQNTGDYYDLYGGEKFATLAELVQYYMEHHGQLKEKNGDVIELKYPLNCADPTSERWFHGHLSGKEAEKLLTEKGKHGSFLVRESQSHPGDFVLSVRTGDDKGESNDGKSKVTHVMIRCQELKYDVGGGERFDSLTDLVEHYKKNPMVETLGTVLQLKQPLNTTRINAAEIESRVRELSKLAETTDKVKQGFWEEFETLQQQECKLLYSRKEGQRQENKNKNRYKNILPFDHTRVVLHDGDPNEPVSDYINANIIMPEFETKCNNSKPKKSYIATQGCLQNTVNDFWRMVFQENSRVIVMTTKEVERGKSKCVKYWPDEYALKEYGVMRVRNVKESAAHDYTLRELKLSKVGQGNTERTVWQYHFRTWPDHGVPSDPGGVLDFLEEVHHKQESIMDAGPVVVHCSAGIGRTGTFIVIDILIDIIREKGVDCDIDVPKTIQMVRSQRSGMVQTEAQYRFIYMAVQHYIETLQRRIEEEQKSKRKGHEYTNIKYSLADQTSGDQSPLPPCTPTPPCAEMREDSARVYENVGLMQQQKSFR
UniProt P08659, sequence (P08659 whole entry, looked up): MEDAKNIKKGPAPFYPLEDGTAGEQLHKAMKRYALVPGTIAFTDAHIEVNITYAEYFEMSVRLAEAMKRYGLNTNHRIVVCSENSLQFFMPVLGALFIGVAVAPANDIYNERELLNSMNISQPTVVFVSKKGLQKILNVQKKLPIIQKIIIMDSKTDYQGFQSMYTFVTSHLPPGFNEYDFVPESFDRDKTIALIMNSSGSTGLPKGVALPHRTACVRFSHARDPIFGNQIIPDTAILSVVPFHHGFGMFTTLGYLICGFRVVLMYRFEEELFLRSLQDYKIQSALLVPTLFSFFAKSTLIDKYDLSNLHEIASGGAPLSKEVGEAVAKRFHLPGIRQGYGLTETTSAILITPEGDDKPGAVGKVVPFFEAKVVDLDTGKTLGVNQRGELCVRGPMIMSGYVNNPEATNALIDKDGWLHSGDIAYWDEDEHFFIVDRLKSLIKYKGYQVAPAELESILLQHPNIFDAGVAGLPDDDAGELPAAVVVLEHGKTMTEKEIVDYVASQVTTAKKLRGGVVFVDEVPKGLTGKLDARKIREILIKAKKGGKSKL

The term AC50 denotes the concentration at which the activity in the assay is half-maximal. With `CN(C)[C@@H]1C(=O)C(C(N)=O)=C(O)[C@@]2(O)C(=O)C3=C(O)c4c(O)cccc4[C@@](C)(O)[C@H]3[C@H](O)[C@@H]12`, the result in assay [1], in assay [2], in [3], in assay [5], in assay [11] and in assay [12] was inactive. The result in [13], in assay [14] and in [15] was inactive. Moreover, the AC50 was active: 8.13 µM in [4]; active: 16.7 µM in [6]; active: 4.28 µM in [7]; active: 17 µM in assay [8]; active: 17.5 µM in assay [9]; active: 6.63 µM in assay [10]. The AC50 with MYC, MYC (gene 4609) was active: 23.1 µM.
